# According to the supplement of paper PMC8728848:
# The list shows a part of the results.
# B1: Sebin1 (Coprinopsis cinerea), A8PEE3 (protein)
# chain: MTSPFYAHIHNVQDDNTWRFTLIFANRATADEWWRAISEAPANTSIAKSITRVTPQYYTHDVNIWNIWNFFADGNIKSISERFRGRLFIVLENDRGGRGITVIPPVPIVDHVSGNWFYIRSKTAPHLFWYYDERRSSIYASKEKRTRFKISIRNPSSQTPKNAIMINTDDVTIHIKENLYVGVDNNLGHIIPTRAYRTFKFGELESGAIAGFDVVENIEERCSSTFDGASLSISGPDSSSPGEPWELV
# Legend:
# Assay in all cases: glycan array binding signal (z-score within array); higher = stronger binding
# Settings in all cases: glycan notation: IUPAC condensed, linker removed
# [1] = target: Fuc(a1-2)Gal
# Procedure, shortened: (§1)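 Glycan array data came from 3228 arrays in the Consortium for Functional Glycomics database, and only arrays with an available protein sequence were kept. Glycan names were put into IUPAC-condensed notation, and columns mapping to the same glycan were averaged. The binding signal is a within-array Z-score, averaged across arrays of one protein sequence run at different concentrations or buffers and across linkers. A negative Z-score can be read as non-binding.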
# [2] = target: Fuc(a1-2)Gal(b1-3)GalNAc
# Procedure, shortened: as §1
# [3] = target: Fuc(a1-2)Gal(b1-3)GalNAc(a1-3)[Fuc(a1-2)]Gal(b1-4)Glc
# Procedure, shortened: as §1
# [4] = target: Fuc(a1-2)Gal(b1-3)GalNAc(a1-3)[Fuc(a1-2)]Gal(b1-4)GlcNAc
# Procedure, shortened: as §1
# [5] = target: Fuc(a1-2)Gal(b1-3)GalNAc(b1-3)Gal
# Procedure, shortened: as §1
# [6] = target: Fuc(a1-2)Gal(b1-3)GalNAc(b1-3)Gal(a1-4)Gal(b1-4)Glc
# Procedure, shortened: as §1
# [7] = target: Fuc(a1-2)Gal(b1-3)GalNAc(b1-4)[Neu5Ac(a2-3)]Gal(b1-4)Glc
# Procedure, shortened: as §1
# [8] = target: Fuc(a1-2)Gal(b1-3)GlcNAc
# Procedure, shortened: as §1
# [9] = target: Fuc(a1-2)Gal(b1-3)GlcNAc(b1-2)Man(a1-3)[Fuc(a1-2)Gal(b1-3)GlcNAc(b1-2)Man(a1-6)]Man(b1-4)GlcNAc(b1-4)GlcNAc
# Procedure, shortened: as §1
# [10] = target: Fuc(a1-2)Gal(b1-3)GlcNAc(b1-2)Man(a1-3)[Fuc(a1-2)Gal(b1-3)GlcNAc(b1-2)Man(a1-6)]Man(b1-4)GlcNAc(b1-4)[Fuc(a1-6)]GlcNAc
# Procedure, shortened: as §1
# [11] = target: Fuc(a1-2)Gal(b1-3)GlcNAc(b1-3)Gal(b1-4)Glc
# Procedure, shortened: as §1
# [12] = target: Fuc(a1-2)Gal(b1-3)GlcNAc(b1-3)GalNAc
# Procedure, shortened: as §1
# [13] = target: Fuc(a1-2)Gal(b1-3)GlcNAc(b1-3)[Fuc(a1-2)Gal(b1-3)GlcNAc(b1-6)]GalNAc
# Procedure, shortened: as §1
# [14] = target: Fuc(a1-2)Gal(b1-3)GlcNAc(b1-3)[Gal(b1-4)GlcNAc(b1-6)]Gal(b1-4)Glc
# Procedure, shortened: as §1
# [15] = target: Fuc(a1-2)Gal(b1-3)GlcNAc(b1-3)[Neu5Ac(a2-6)Gal(b1-4)GlcNAc(b1-6)]Gal(b1-4)Glc
# Procedure, shortened: as §1
# [16] = target: Fuc(a1-2)Gal(b1-3)GlcNAc6S
# Procedure, shortened: as §1
# [17] = target: Fuc(a1-2)Gal(b1-3)[Fuc(a1-4)]GlcNAc
# Procedure, shortened: as §1
# [18] = target: Fuc(a1-2)Gal(b1-3)[Fuc(a1-4)]GlcNAc(b1-2)Man(a1-3)[Fuc(a1-2)Gal(b1-3)[Fuc(a1-4)]GlcNAc(b1-2)Man(a1-3)]Man(b1-4)GlcNAc(b1-4)GlcNAc
# Procedure, shortened: as §1
# [19] = target: Fuc(a1-2)Gal(b1-3)[Fuc(a1-4)]GlcNAc(b1-2)Man(a1-3)[Fuc(a1-2)Gal(b1-3)[Fuc(a1-4)]GlcNAc(b1-2)Man(a1-6)]Man(b1-4)GlcNAc(b1-4)[Fuc(a1-6)]GlcNAc(b1-4)[Fuc(a1-6)]GlcNAc
# Procedure, shortened: as §1
# [20] = target: Fuc(a1-2)Gal(b1-3)[Fuc(a1-4)]GlcNAc(b1-3)[Fuc(a1-3)[Gal(b1-4)]GlcNAc(b1-6)]Gal(b1-4)Glc
# Procedure, shortened: as §1
# [21] = target: Fuc(a1-2)Gal(b1-3)[Fuc(a1-4)]GlcNAc(b1-3)[Gal(b1-4)GlcNAc(b1-6)]Gal(b1-4)Glc
# Procedure, shortened: as §1
# [22] = target: Fuc(a1-2)Gal(b1-4)Fuc(a1-3)]GlcNAc(b1-2)Man(a1-3)[Fuc(a1-2)Gal(b1-4)[Fuc(a1-3)]GlcNAc(b1-2)Man(a1-6)]Man(b1-4)GlcNAc(b1-4)GlcNAc
# Procedure, shortened: as §1
# [23] = target: Fuc(a1-2)Gal(b1-4)Glc
# Procedure, shortened: as §1
# [24] = target: Fuc(a1-2)Gal(b1-4)Glc6S
# Procedure, shortened: as §1
# [25] = target: Fuc(a1-2)Gal(b1-4)GlcNAc
# Procedure, shortened: as §1
# [26] = target: Fuc(a1-2)Gal(b1-4)GlcNAc(b1-2)Man
# Procedure, shortened: as §1
# [27] = target: Fuc(a1-2)Gal(b1-4)GlcNAc(b1-2)Man(a1-3)[Fuc(a1-2)Gal(b1-4)GlcNAc(b1-2)Man(a1-6)]Man(b1-4)GlcNAc(b1-4)GlcNAc
# Procedure, shortened: as §1
# [28] = target: Fuc(a1-2)Gal(b1-4)GlcNAc(b1-2)Man(a1-3)[Fuc(a1-2)Gal(b1-4)GlcNAc(b1-2)Man(a1-6)]Man(b1-4)GlcNAc(b1-4)[Fuc(a1-6)]GlcNAc
# Procedure, shortened: as §1
# [29] = target: Fuc(a1-2)Gal(b1-4)GlcNAc(b1-2)[Fuc(a1-2)Gal(b1-4)GlcNAc(b1-4)]Man(a1-3)[Fuc(a1-2)Gal(b1-4)GlcNAc(b1-2)Man(a1-6)]Man(b1-4)GlcNAc(b1-4)GlcNAc
# Procedure, shortened: as §1
# [30] = target: Fuc(a1-2)Gal(b1-4)GlcNAc(b1-3)Gal(b1-4)GlcNAc
# Procedure, shortened: as §1
binder,measurement,setting,value
B1,glycan array binding signal (z-score),[1],-0.454
same,glycan array binding signal (z-score),[2],-0.284
same,glycan array binding signal (z-score),[3],0.089
same,glycan array binding signal (z-score),[4],-0.438
same,glycan array binding signal (z-score),[5],-0.313
same,glycan array binding signal (z-score),[6],0.198
same,glycan array binding signal (z-score),[7],-0.103
same,glycan array binding signal (z-score),[8],-0.406
same,glycan array binding signal (z-score),[9],0.775
same,glycan array binding signal (z-score),[10],0.497
same,glycan array binding signal (z-score),[11],-0.016
same,glycan array binding signal (z-score),[12],-0.114
same,glycan array binding signal (z-score),[13],0.851
same,glycan array binding signal (z-score),[14],0.569
same,glycan array binding signal (z-score),[15],-0.147
same,glycan array binding signal (z-score),[16],-0.106
same,glycan array binding signal (z-score),[17],-0.178
same,glycan array binding signal (z-score),[18],-0.126
same,glycan array binding signal (z-score),[19],0.098
same,glycan array binding signal (z-score),[20],0.083
same,glycan array binding signal (z-score),[21],0.147
same,glycan array binding signal (z-score),[22],1.59
same,glycan array binding signal (z-score),[23],-0.509
same,glycan array binding signal (z-score),[24],-0.276
same,glycan array binding signal (z-score),[25],-0.421
same,glycan array binding signal (z-score),[26],0.046
same,glycan array binding signal (z-score),[27],0.126
same,glycan array binding signal (z-score),[28],-0.052
same,glycan array binding signal (z-score),[29],-0.038
same,glycan array binding signal (z-score),[30],-0.293
